This passage reports activity change, negative = inhibition results from PubChem BioAssay AID1745853 (National Center for Advancing Translational Sciences (NCATS), 2022).

This is one part of the list. Further columns of the screen follow, without active or inactive calls.

Common to all, as to test: Primary Screen for Target Class Profiling of Small Molecule Inhibitors of Methyltransferases
Assay [1] addresses Glycine N-methyltransferase (Homo sapiens) (UniProt Q14749). To be noted: purified enzyme, MTase-Glo SAH luminescence; measured here: GNMT inhibition; at 40 µM; stronger effect = lower value. The method in brief:
(§1)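 Each enzyme was assayed with SAM and its substrate. SAH formation detected by MTase-Glo luminescence; single-point 40 uM screen[…].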

The target of assay [2] is Guanidinoacetate N-methyltransferase (Homo sapiens) (UniProt Q14353). To be noted: purified enzyme, MTase-Glo SAH luminescence; measured here: GAMT inhibition; at 40 µM; stronger effect = lower value. The method in brief: as §1
The target of assay [3] is Histamine N-methyltransferase (Homo sapiens) (UniProt P50135). Conditions: purified enzyme, MTase-Glo SAH luminescence; measured here: HNMT inhibition; at 40 µM; stronger effect = lower value. The method in brief:
as §1

For assay [4], the target named is Nicotinamide N-methyltransferase (Homo sapiens) (UniProt P40261). To be noted: purified enzyme, MTase-Glo SAH luminescence; measured here: NNMT inhibition; at 40 µM; stronger effect = lower value. The method in brief: as §1
Assay [5] has as its target Phenylethanolamine N-methyltransferase (Homo sapiens) (UniProt P11086). Conditions: purified enzyme, MTase-Glo SAH luminescence; measured here: PNMT inhibition; at 40 µM; stronger effect = lower value. The method in brief:
as §1
% is scaled to controls: 0 for no effect and ±100 for the full control effect.

For the compound `COc1cccc(S(=O)(=O)N2CCC(c3noc(-c4ccccn4)n3)C2)c1` (stereo not drawn), the activity change, negative = inhibition was -3.07% in assay [1]; -1.51% in assay [2]; -0.527% in assay [3]; -9.91% in assay [4]; -3.89% in assay [5].
For `CC(=O)N[C@H]1[C@H](O[C@H]2CC[C@@]3(C)C(CC[C@]4(C)C3CC=C3C5CC(C)(C)CC[C@]5(C(=O)O)C(O)C[C@]34C)C2(C)C)O[C@H](CO[C@@H]2O[C@H](C)[C@H](O)[C@H](O)[C@H]2O[C@@H]2OC[C@@H](O)[C@H](O)[C@H]2O)[C@@H](O)[C@@H]1O` (stereo partly drawn) the same measures were -0.794%, -1.84%, 4.68%, -10.1% and -1.71%.
On the same counts, the results for `c1ccc(CNc2ncc(-c3ccc(N4CCOCC4)cc3)c3c2OCC3)cc1` are -35%, -31.2%, -7.35%, -17.5% and -35.1%.
On the same counts, the results for `C[C@@]12CO[C@@H](Cc3ccccc3)O[C@@H]1CC[C@]1(C)C2CC[C@@H](O)[C@H]1CC(=O)NCc1cc(F)cc(F)c1` (stereo partly drawn) are -4.79%, -5.16%, -1.8%, -8.03% and -4.99%.
As to `Cc1ccc(Nc2nc(C)cc3nn(CC(=O)Nc4ccc5c(c4)OCCO5)c(=O)n23)cc1`, the activity change, negative = inhibition in assay [1] came out at 13.1%; in assay [2] it was 2.27%; in assay [3], 8.35%; in assay [4], 3.89%; in assay [5], 4.01%.
For `O=C1CN(Cc2ccccc2Cl)S(=O)(=O)c2ccccc2N1Cc1ccc(F)cc1` the same measures were 2.14%, 0.626%, 10.4%, -5.01% and -3.84%.
For the compound `COC(=O)CC(O)C1OC(c2ccccc2)C(O)C1O` (stereo not drawn), the activity change, negative = inhibition was -3.04% in assay [1]; -2.57% in assay [2]; 0.924% in assay [3]; -12.5% in assay [4]; 3.32% in assay [5].
With `COC(=O)Cn1c(=O)oc2cc(S(=O)(=O)NCCN3CCOCC3)ccc21`, the activity change, negative = inhibition in assay [1] worked out at 5.1%; in assay [2], 0%; in assay [3], 9.41%; in assay [4], 6.47%; in assay [5], 5.17%.
For `Cn1c(=O)c2ccc(C(=O)NC3CCCCC3)cc2n2c(=O)n(CC(=O)NC3CCCC3)nc12` the same measures were 2.89%, 2.74%, -0.349%, 0.733% and 2.27%.
On the same counts, the results for `C[C@]12CC[C@@H]3c4ccc(OC(=O)c5ccccc5)cc4CC[C@H]3[C@@H]1CC[C@@H]2O` are 6.36%, 3.73%, 8.73%, -12.8% and -4.97%.
Take `CC(O)CCc1ccc(O[C@@H]2O[C@H](CO)[C@@H](O)[C@H](O)[C@H]2O)cc1` (stereo partly drawn): the activity change, negative = inhibition in assay [1] is 1.48%; in assay [2], 2.43%; in assay [3], 6.27%; in assay [4], -7.25%; in assay [5] it was -2.34%.
On the same counts, the results for `CC(=O)c1c(C)cc(O[C@@H]2O[C@H](CO)[C@@H](O)[C@H](O)[C@H]2O)cc1O` are 1.43%, -3.11%, 4.31%, -12.1% and 1.71%.
On the same counts, the results for `COc1ccc(Br)cc1CNC(=O)c1cc2n(n1)CC(C)(C(=O)NCc1ccccc1)N(C)C2=O` (stereo not drawn) are 4.62%, 0%, 5.99%, 3.95% and 4.78%.
On the same counts, the results for `CCCn1c(=O)c2ccc(C(=O)NC3CCCCC3)cc2n2c(=O)n(C)nc12` are -5.44%, -9.31%, -6.12%, -7.07% and -6.53%.
For the compound `Cc1nnc(N2CCC3(CCC(=O)N(CCCN(C)C)C3)CC2)c2ccccc12`, the activity change, negative = inhibition in assay [1] was -19.3%; in assay [2], -4.65%; in assay [3], -9.36%; in assay [4], -6.75%; in assay [5], -12.4%.
For `CN(c1nccc(=O)[nH]1)C1CCN(c2nc3ccccc3n2Cc2ccc(F)cc2)CC1`, the activity change, negative = inhibition was -5.12% in assay [1]; -0.499% in assay [2]; 2.93% in assay [3]; -47.2% in assay [4]; 0.258% in assay [5].
Turning to `COc1ccc(OC)c2c1cc1n2CC(C)(C(=O)NC2CCCCCC2)N(Cc2ccccn2)C1=O` (stereo not drawn), the activity change, negative = inhibition in assay [1] was -36.3%; in assay [2] it was -13.1%; in assay [3] it was -5.18%; in assay [4], -25.8%; in assay [5] it was -43.9%.
Regarding `CC(C)OCCCNc1nc2c(S(=O)(=O)c3ccc(Br)cc3)nnn2c2ccccc12`, the activity change, negative = inhibition was -4.03% in assay [1]; -5.14% in assay [2]; -1.1% in assay [3]; -3.13% in assay [4]; -5.3% in assay [5].
Turning to `CCn1c(CN2CCN(c3nc(C)cnc3C)CC2)nnc1C1CC(N)C1` (stereo not drawn), the activity change, negative = inhibition in assay [1] was -6.16%; in assay [2] it was -2.33%; in assay [3], -2.1%; in assay [4], -11.3%; in assay [5] it was -2.62%.
Regarding `COC(=O)[C@H](CC1CCCCC1)NC(=O)[C@@H]1CN(C(=O)c2ccc(N(C)C)cc2)CCN1C(C)=O`, the activity change, negative = inhibition was -1.53% in assay [1]; -5.14% in assay [2]; -1.07% in assay [3]; -7.79% in assay [4]; -1.69% in assay [5].
Regarding `CC(C)c1ccc(S(=O)(=O)c2nnn3c2nc(NC2CCCC2)c2ccccc23)cc1`, the activity change, negative = inhibition was -2.93% in assay [1]; 1.43% in assay [2]; -3.81% in assay [3]; -3.95% in assay [4]; -7.33% in assay [5].
For the compound `Cc1nc(C(=O)N2CCC[C@H]2Cc2nnc(-c3ccccc3)o2)c(-c2ccccc2F)s1`, the activity change, negative = inhibition is -3.01% in assay [1]; 6.48% in assay [2]; 9.16% in assay [3]; -19% in assay [4]; 0.343% in assay [5].
On the same counts, the results for `CCCCN1C(=O)c2cc(C(=O)NCCc3cccs3)nn2CC1(C)C(=O)NC1CCCC1` (stereo not drawn) are 2.86%, 0%, -21%, 4.7% and 2.43%.
For `O=C(NCCN1C(=O)C2(CCCCC2)C1c1ccccc1)NCc1ccccc1` (stereo not drawn) the same measures were -10.3%, 3.68%, -1.57%, -5.3% and -0.085%.
On the same counts, the results for `CCCn1c(=O)c2ccccc2n2c(SCC(=O)Nc3cccc(C)c3)nnc12` are -3.22%, 0%, 9.97%, -3.19% and -7.56%.
Regarding `CCN(CCN(C)C)C(=O)CNCc1cc(C(=O)O)ccn1`, the activity change, negative = inhibition in assay [2] is 2.78%; in assay [4], -10.8%; in assay [5], -0.3%.
With `CCc1noc(-c2cn(C3CCN(C(=O)COc4ccccc4)C3)nn2)n1` (stereo not drawn), the activity change, negative = inhibition in assay [1] was -4.25%; in assay [2], -10%; in assay [3] it was -3.5%; in assay [4], -11.4%; in assay [5], -6.7%.
For `CCCCNc1nc2c(S(=O)(=O)c3ccc(C)cc3)nnn2c2ccccc12` the same measures were -3.18%, 1.49%, -2.61%, 4.06% and -6.43%.
